The text below walks through data of the RNAGym collection of RNA variant scans (doi:10.1101/gad.245936.114).

Variants at the background level are over-represented here.

Sequences and labels used below:
B1: tRNA (parent)
chain: CUCUCGGUAGCCAAGUUGGUUUAAGGCGCAAGACUUUAAUUUAUCACUACGAAAUCUUGAGAUCGGGCGUUCGACUCGCCCCCGGGAGAUUUUUUCCUCGAGCAA

In the series the parent is B1. The experiment in a line: nonsense suppression (GFP-seq) (ratio to wild type); higher = more function; SUP4oc tRNA, yeast GFP reporter sort-seq. Put shortly:
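Nonsense suppression (GFPSEQ) is the median GFP/RFP ratio of each sorting bin, weighted by the variant's estimated share of cells in that bin and expressed relative to the unmutated parent tRNA. Yeast strains carried genome-integrated variants of an ochre-suppressor tRNA from a library with ~3% random mutations, plus a galactose-driven GFP ochre reporter and RFP, and were grown in raffinose/galactose medium containing 80 mg/L adenine. Cells were sorted into GFP/RFP bins, each bin was Illumina-sequenced (phred ≥30), and variants were kept only with ≥100 reads and ≥30 cells.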
On to CUCUCGGUGGCCAAGUUGGUUUAAGGCGCAAGACUUUAAUUUAUCACUACGAAAUCUUGAGAUCGAGCGUUCGACUCGCCCCCGGGAGAUUUUUUCCUCGAGCAA [A9G G66A], for which the nonsense suppression is no more than 0.026. To CUCUCGGUAGCCAAGUUGGUUUAAGGCGCAAGACUUUAAUUUAUCACUACGAAUUGUUGAGAUCGGGCGUUAGACUCGCCCCCGGGAGAUUUUUUCCUCGAGCAA [A54U C56G C72A] belongs no more than 0.026; to CUCUCGGUAGCCAAGUUGGUUUAAGGCGCAAGACAUUAAUUUAUCACUACGAAUUCUUGAGAUCGGGCGUUCGACUCGCCCCCGUGAGAUUUUUUCCUCGAGCAA [U35A A54U G85U], no more than 0.026; to UUCUCGGUAGCCAAGUUGGUUUAAGACGCAAGACUUUAAUUUAUCACUACGAAAUCUUGAGAUCGGGCUUUCGACUCGUCCCCGGGAGAUUUUUUCCUCGAGCAA [C1U G26A G69U C79U], no more than 0.026.

With CUCUCGGUAGCCAAGUUGGUUUAAGGCUCAAGACUUUAAUUUAUCACUACGAAAUCUUGAGAUCGGGCGUUCGACUCGCCCCCGUGAGAUUUUUUCCUCGAGCAA [G28U G85U], the nonsense suppression is no more than 0.026.

With CUCUCGGUAGCCAAGGUGGUUUAAGGCGCAAGACUUUAAUUUAUCACUACGAAAUCUUGAGAUCGCGCGUUCGACUCGCCCCCGGGAGAUUUUUUCCUCGAGCAA [U16G G66C], the nonsense suppression was no more than 0.026. To CUCUCGGUUGCUAAGUUGGUUUAAGGCGCAAGACAUUAAUUUAUCACUACGAAAACUUGAGAUCGGGCGUUCGACUCGCCCCCGGGAGAUUUUUUCCUCGAGCAA [A9U C12U U35A U55A] belongs no more than 0.026; to CUCUCCGUAGCCAAGUUGGUUUAAGGCGCAAGACUUUAAUUUAUCACUACGAAAGCUUGAGAUCGGGGGUUCGACUCGCCCCCGGGAGAUUUUUUCCUCGAGCAA [G6C U55G C68G], no more than 0.026. Then CUCUCGGUAGCCAAGUUGGUUUAAGUCGCAAGACUUUAAUUUAUCACUACGAAAUCUUUAGCUCGGACGUUCGACUCGCCCCGGGGAGAUUUUUUCCUCGAGCAA [G26U G59U A62C G67A C83G], with no more than 0.026. Then CUCUCGGUAGCAAAGAUGUUUUAAGGCGCAAGACUUUAAUUUAUCACUACGAAAUCUUGAGAUCGGGCGUUCGACUCGCCCCCAGGAGAUUUUUUCCUCGAGCAA [C12A U16A G19U G84A], with no more than 0.026. Consider CUGUCGGUAGCCAAGUUGGUUUAAGGCGCAAGACUUUAAUUUAUCACUACGAAAUCUUCAGAUCGGGCGUUCGACUCGCCCCCUGGAGAUUUUUUCCUCGAGCAA [C3G G59C G84U], for which the nonsense suppression is no more than 0.026.

Consider CACUCGGUAGCCACGUUGGUUUAAGGCGCAAGACUUUAAUUUAUCACUACGAAUUCUUGAGAUCGGGCGAUCGACUGGCCCCAGGGAGAUUUUUUCCUCGAGCAA [U2A A14C A54U U70A C77G C83A], for which the nonsense suppression is no more than 0.026.

Regarding CUCUCGGUAGUCAAGUUGGUUCAAGGCGCAAGACUUUAAUUUAUCACUACGAAAUCUUGAGAUCGGGCGUUCGACUCGCCCCCGGGAGAUUUUUUCCUCGAGCAA [C11U U22C], the nonsense suppression is 0.0289. Then CUUUCGGUGGCCAAGUUGGUUUAAGGCGCAAGACUUUAAUUUAUCACUACGAAAUCUUGAGAUCGGGAGUUCGACUCGCCCCCGGGAGAUUUUUUCCUCGAGCAA [C3U A9G C68A], with no more than 0.026; and CUCUCGGUAGCCAAGUUGGUAUAAGGCGCAAGACUUUAAUUUAUCACUACGAAAUCUUGAGAUCGGGCGUUCGACUCGCCCCCGGGAGGUUUUUUCCUCGAGCAA [U21A A89G], with no more than 0.026; and CUCUCGGUAGCCAAGUUGGUUUAAGGUGCAAGACUUUAAUUUAUCACUACGAAAUCUUGAGAUCGGACGUUCGACUCGCCCCCGGGAGAUUUUUUCCUCGAGCAA [C27U G67A], with no more than 0.026. To GUCUCGGUAGCCAAGUUGGUUUAAGGCGCACGGCUUUAAUUUAUCACUACGAAAUCUUGAGAUCGGGCGUUCGACUCACCCCCGAGAGAUUUUUUCCUCGAGCAA [C1G A31C A33G G78A G85A] belongs no more than 0.026.

As to CUCUCGGUAGCCAAGUUGGCUUAAGGCGCAAUACUUUAAUUUAUCACUACGAAAUCUUGAGAUCGGUCGUUCGACUCGCCCCCGGGAGAUUUUUUCCUCGAGCAA [U20C G32U G67U], the nonsense suppression is no more than 0.026. To CUAUCGGUAGCCAAGUUGGUUUAAGGCGGAAGACUUUAAUUUAUCACUACGAAAUCUUGAGAUCGAGCGUUCGACUCGCCGCCGCGAGAUUUUUUCCUCGAGCAA [C3A C29G G66A C81G G85C] belongs no more than 0.026; to CUCUCGGUAGCCAAGUUGGUUUAAGGCGCAAGACUUUAAUUUAUCACUACGAAAUGUGGAGAUCGGGCGUUCGACUCGCCCCCGGGAGAUUUUUUCCUCGAGCAA [C56G U58G], no more than 0.026.

Take CUCACAGUAGCCAAGUUGGUUUAAGGCGCAAGACUUUAAUUUAUCACUACGAAAUCUUGAGAUCGGGCGUUCGACUCGUCCCCGGGAGAUUUUUUCCUCGAGCAA [U4A G6A C79U]: the nonsense suppression is no more than 0.026.

Take CUCUCGGUAGCCAAGUUGGGUUAAGGCGUAAGACUUUAAUUUAUCACUACGAAAUCUUGAGAUCGGGCGUUCGACUCGCCCCCGGGAGAUUUUUUCCUCGAGCAA [U20G C29U]: the nonsense suppression came to 1.12.

Consider CUCUCGGUAGCCAUGAUGGUUUAAGGCGCAAGACUUUAAUUUAUCACUACGAAAUCUUGAGUUCGGGCGUUCGACUCGCCCCCUGGAGAUUUUUUCCUCGAGCAA [A14U U16A A62U G84U], for which the nonsense suppression was no more than 0.026. For CUCUCGGUAGCCAAGUUGGUGUAAGGCGCAAGACUUUAAUUUAUCACUACGAAAUCUUGAGGUAGGGCGUUCGACUCGCCCCCGGGAGAUUUUUUCCUCGAGCAA [U21G A62G C64A], the nonsense suppression was no more than 0.026. Then CUCUCGGUAGCCAAGUUGGUUUAAGGCGCAAAACUUUAAUUUAUCACUACGAAAUCUUGACAUCGGGCGUUCGACUCGCCUACGGGAGAUUUUUUCCUCGAGCAA [G32A G61C C81U C82A], with no more than 0.026; and CUCUCGGUAGCCAAGUUGCUUUAAGGCGCAAGACUUUAAUUUAUCACUACGAAAUCUUGAGAUCGGGCGUUCGACUCCCCCCCGGGAGAUUUUUUCCUCGAGCAA [G19C G78C], with no more than 0.026. Then CUCUCGGUAGCCAACUUGGUUUAAGUCGCAAGACUUUAAUUUAUCACUACGAAAUCCUGAGAUCGGGCGUUCGACUCCCCCCCGGGAGAUUUUUUCCUCGAGCAA [G15C G26U U57C G78C], with no more than 0.026.
